# In all, about 1,900 compounds went through this assay and about 40 (2%) showed an effect of 50% or more. The list shows a part of the results.
# Target: human SGLT1 (hSGLT1) (human, UniProt P13866)
# Assay: primary screen, percent of control activity; higher = less effect of the substance
# Set-up: single well
# Settings: 50 µM
# Procedure, shortened: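 Single-point screen at 50 µmol/L in CHO-hSGLT1 cells, with 160 µmol/L 1-NBD-glucose in glucose-free DMEM for 90 min at 37°C. Fluorescence from isopropanol extracts was calibrated, and CHO wild-type uptake was subtracted. Data are percent of uptake without compound.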
# Sequence of human SGLT1 (hSGLT1) (P13866 whole entry, looked up): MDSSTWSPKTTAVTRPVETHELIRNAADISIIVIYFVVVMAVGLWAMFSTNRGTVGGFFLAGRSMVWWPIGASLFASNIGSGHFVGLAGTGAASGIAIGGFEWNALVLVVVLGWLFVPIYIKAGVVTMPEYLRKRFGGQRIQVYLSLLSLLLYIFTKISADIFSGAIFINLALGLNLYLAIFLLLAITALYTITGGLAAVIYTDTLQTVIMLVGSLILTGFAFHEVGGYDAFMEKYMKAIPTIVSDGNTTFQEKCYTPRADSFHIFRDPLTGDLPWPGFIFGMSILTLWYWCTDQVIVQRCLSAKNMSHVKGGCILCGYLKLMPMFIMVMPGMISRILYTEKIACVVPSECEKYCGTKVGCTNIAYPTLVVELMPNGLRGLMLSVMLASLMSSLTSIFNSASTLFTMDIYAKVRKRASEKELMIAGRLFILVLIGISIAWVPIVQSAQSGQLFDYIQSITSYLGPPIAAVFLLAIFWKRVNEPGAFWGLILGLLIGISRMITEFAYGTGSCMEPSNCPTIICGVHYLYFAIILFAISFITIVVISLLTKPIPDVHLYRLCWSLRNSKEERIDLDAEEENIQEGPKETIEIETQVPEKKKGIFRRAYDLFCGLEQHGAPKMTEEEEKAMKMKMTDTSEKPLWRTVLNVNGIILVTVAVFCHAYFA
row,Compound,NORMALIZED SGLT1 ACTIVITY (%)
1,Cl.O=C(O)C1=CCCNC1,133
2,C/C=C/c1ccc2c(c1)OCO2,187
3,O=C(O)/C=C\C(=O)O.c1ccc2nc(N3CCNCC3)ccc2c1,116
4,CN(C)C(=S)SSC(=S)N(C)C,98
5,CC(=O)Oc1cc(-c2coc3cc(OC(C)=O)c(OC(C)=O)c(OC(C)=O)c3c2=O)cc(OC(C)=O)c1OC(C)=O,98
6,NC(=O)c1ncn([C@@H]2O[C@H](CO)[C@@H](O)[C@H]2O)c1O,84
7,CC(=O)O[C@H]1CC[C@]2(C)C3CC(=O)[C@]4(C)C(C(C)=O)=CCC4C3CC[C@H]2C1 (stereo partly shown),269
8,CC(=O)N1CCN(c2ccc(OCC3CO[C@](Cn4ccnc4)(c4ccc(Cl)cc4Cl)O3)cc2)CC1 (stereo partly shown),162
9,O=C1NC(=O)C(=O)C(=O)N1,99
10,CCCc1nn(C)c2c(=O)[nH]c(-c3cc(S(=O)(=O)N4CCN(C)CC4)ccc3OCC)nc12.O=C(O)CC(O)(CC(=O)O)C(=O)O,242
11,COP(=O)(NC(C)=O)SC (stereo not shown),177
12,CC(C)(O)CC[C@@H](O)[C@](C)(O)[C@H]1CC[C@@]2(O)C3=CC(=O)[C@@H]4C[C@@H](O)[C@@H](O)C[C@]4(C)[C@H]3CC[C@]12C,100
13,CC(=O)NC(C(=O)O)C(C)(C)SN=O (stereo not shown),111
14,C=C1CCC2C(CC2(C)C)C(=O)CCC1O (stereo not shown),130
15,O=c1c(-c2ccc(O)cc2)coc2cc(O)cc(O)c12,529
16,CC(=O)N[C@@H](CC(C)C)C(=O)O,98
17,CC(=O)O[C@@H]1CC2C(C)(C)[C@@H](O)CC[C@]2(C)C2CC[C@@]3(C)[C@H](c4ccoc4)OC(=O)[C@H]4O[C@]43[C@@]21C (stereo partly shown),283
18,C[C@H]1C(=O)O[C@@H]2CCN3CC=C(COC(=O)[C@](C)(O)[C@]1(C)O)[C@H]23,104
19,Oc1ccc(O)cc1,118
20,O=C(O)COc1cc(Cl)c(Cl)cc1Cl,130
21,CC1=C2C(O)C(=O)OC3CC4C(C)(C)C(=O)C=C[C@]4(C)C(CC1)[C@]23C (stereo partly shown),141
22,CCCCCC(C)N.O=S(=O)(O)O (stereo not shown),109
23,CCn1cc(C(=O)O)c(=O)c2cnc(N3CCNCC3)nc21,143
24,O=C([O-])c1ccccc1O.[Na+],105

row,Compound,NORMALIZED SGLT1 ACTIVITY (%)
1,CCCCC(=O)O[C@]1(C(=O)CO)[C@@H](C)C[C@H]2[C@@H]3CCC4=CC(=O)C=C[C@]4(C)[C@@]3(F)[C@@H](O)C[C@@]21C,207
2,CNC(=O)O/N=C/C(C)(C)SC,139
3,CC(=O)Oc1ccc2c(c1)CCC1C2CC[C@]2(C)C(=O)CCC12 (stereo partly shown),143
4,CCCCCCCCCCCCCCCC[N+](C)(C)C.[Br-],19
5,CC(CC(O)C1OC1(C)C)[C@@H]1CCC2(C)C3=CCC4C(C)(C)C(=O)CCC4(C)C3CC[C@@]12C (stereo partly shown),114
6,O=C(NC(Cc1cc(=O)[nH]c2ccccc12)C(=O)O)c1ccc(Cl)cc1 (stereo not shown),86
7,O=C1c2ccccc2C(=O)c2ccccc21,172
8,O=C(O)c1cc(O)c2c(c1)[C@H]([C@H]1c3cc(C(=O)O)cc(O)c3C(=O)c3c(O[C@@H]4O[C@H](CO)[C@@H](O)[C@H](O)[C@H]4O)cccc31)c1cccc(O[C@@H]3O[C@H](CO)[C@@H](O)[C@H](O)[C@H]3O)c1C2=O,96
9,CN1CCc2cc3c(cc2C1O)OCO3.Cl (stereo not shown),163
10,COC(=O)CCC(=O)O[C@H]1CCC2(C)C(CCC3C2C(=O)[C@@H](O)C2(C)C3CC3OC4(CCC(C)CO4)[C@@H](C)C32)C1 (stereo partly shown),149
11,CN1CCc2cccc3c2C1Cc1ccc(O)c(O)c1-3.Cl (stereo not shown),137
12,NC(=O)N/N=C/c1ccc([N+](=O)[O-])o1,182
13,O=C(O)CCCN1C(=O)c2cccc3cccc(c23)C1=O,203
14,CO/N=C1\CN(c2nc3c(cc2F)c(=O)c(C(=O)O)cn3C2CC2)CC1CN.CS(=O)(=O)O (stereo not shown),157
15,O=c1oc2c(O)c(O)cc3c(=O)oc4c(O)c(O)cc1c4c23,95
16,COc1c(O)cc2c(-c3ccccc3)cc(=O)oc2c1OC,194
17,O=C(O)/C=C/c1ccc(O)c(O)c1,110
18,Nc1ncnc2c1ncn2[C@@H]1O[C@H](COP(=O)(O)O)[C@@H](O)[C@H]1O,135
19,CN(C)CCc1c[nH]c2ccc(C[C@H]3COC(=O)N3)cc12,101
20,COc1ccc2c(c1)c(CC(=O)OCC(=O)O)c(C)n2C(=O)c1ccc(Cl)cc1,128
21,O=c1[nH]c(=O)n([C@H]2C[C@H](O)[C@@H](CO)O2)cc1F,122
22,N#Cc1ccc2c(c1)N(CCCN1CCC(O)CC1)c1ccccc1S2,75
23,Nc1ccc(C(=O)Oc2ccccc2)c(O)c1,175
24,N#Cc1c(Cl)c(Cl)c(Cl)c(C#N)c1Cl,76

row,Compound,NORMALIZED SGLT1 ACTIVITY (%)
1,C[C@@H]1CC[C@@]2(OC1)OC1C(O)C3C4CC[C@H]5C[C@H](O[C@@H]6O[C@H](CO)[C@H](O[C@@H]7O[C@H](CO)[C@@H](O)[C@H](O[C@@H]8OC[C@@H](O)[C@H](O)[C@H]8O)[C@H]7O[C@@H]7O[C@H](CO)[C@H](O)[C@H](O[C@@H]8O[C@H](CO)[C@@H](O)[C@H](O)[C@H]8O)[C@H]7O)[C@H](O)[C@H]6O)[C@H](O)C[C@]5(C)C4CC[C@]3(C)C1[C@@H]2C (stereo partly shown),76
2,COC(=O)c1c(Cl)c(Cl)c(C(=O)OC)c(Cl)c1Cl,107
3,CCn1cc(C(=O)O)c(=O)c2cc3c(cc21)OCO3,204
4,CCCc1nc(C(C)(C)O)c(C(=O)OCc2oc(=O)oc2C)n1Cc1ccc(-c2ccccc2-c2nn[nH]n2)cc1,208
5,CC(C)CCCC(C)[C@H]1CCC2C3CC=C4CC(=O)CC[C@]4(C)C3CC[C@@]21C (stereo partly shown),159
6,S=c1[nH]cnc2nc[nH]c12,103
7,CC(=O)CC(c1ccccc1)c1c(O)c2ccccc2oc1=O (stereo not shown),134
8,COc1c(O)cc2c(c1O)[C@@H]1O[C@H](CO)[C@@H](O)[C@H](O)[C@H]1OC2=O.O,81
9,COC(=O)c1c(OC)cc2c(c1C)Oc1c(Cl)c(OC(C)=O)c(Cl)c(C)c1C(=O)O2,279
10,O=C(Cc1ccccc1)NO,95
11,CC(=O)O.CSCCC(N)C(=O)NC(CC(C)C)C(=O)NC(Cc1ccccc1)C(=O)O (stereo not shown),154
12,NC/C=C/C(=O)O,114
13,CS(=O)(=O)[O-].C[n+]1ccccc1/C=N/O,121
14,Oc1c(Cl)c(Cl)c(Cl)c(Cl)c1Cl,622
15,CC(C)NCC(O)c1ccc(O)c(O)c1.Cl (stereo not shown),140
16,CC(C)CC(NC(=O)C(Cc1ccccc1)NC(=O)CNC(=O)CNC(=O)C(N)Cc1ccc(O)cc1)C(=O)O (stereo not shown),158
17,Nc1nc2ncc(=O)[nH]c2c(=O)[nH]1,94
18,CC(C)N(C(=O)SCC(Cl)=C(Cl)Cl)C(C)C,98
19,CCCC(C)C1(CC)C(=O)N=C([S-])NC1=O.[Na+] (stereo not shown),143
20,COc1ccc(C2Sc3ccccc3N(CCN(C)C)C(=O)C2OC(C)=O)cc1.Cl (stereo not shown),70
21,COc1ccccc1OCC(O)CN1CCN(CC(=O)Nc2c(C)cccc2C)CC1 (stereo not shown),141
22,C=C1C(=O)O[C@@H]2C[C@@]3(C)CCC[C@H](C)C3=C[C@H]12,104
23,COc1c(-c2coc3cc4c(cc3c2=O)CC(OC(C)=O)C(C)(C)O4)ccc2c1C=CC(C)(C)O2 (stereo not shown),308
24,Cl.Clc1cccc(Cl)c1N=C1NCCN1,130

row,Compound,NORMALIZED SGLT1 ACTIVITY (%)
1,CC1=C(C(=O)O)N2C(=O)[C@@H](NC(=O)C(N)c3ccccc3)[C@H]2SC1 (stereo partly shown),85
2,COc1ccc2c(c1)OC[C@@H](Cc1ccc(OC)c(OC)c1)[C@H]2O,78
3,CC(C)[C@@H]1CC[C@@H](C)C[C@H]1O,116
4,O=c1cc(-c2ccc(O)cc2)oc2cc(O[C@@H]3O[C@H](CO)[C@@H](O)[C@H](O)[C@H]3O[C@@H]3OC[C@](O)(CO)[C@H]3O)cc(O)c12,127
5,O=C(/C=C/c1ccc(O)c(O)c1)O[C@@H]1C[C@](O)(C(=O)O)C[C@@H](O)[C@H]1O,132
6,C[C@]12CC(=O)C3C(CC[C@@H]4C[C@H](O)CC[C@]34C)C1CC[C@]2(O)C(=O)CO (stereo partly shown),90
7,CCOC(=O)[C@H](CCc1ccccc1)N[C@@H](C)C(=O)N1[C@H](C(=O)O)C[C@H]2CCCC[C@@H]21,113
8,CCC(c1ccc(O)cc1)C(CC)c1ccc(O)cc1 (stereo not shown),63
9,CC[C@H](/C=C/C(C)C1CCC2C3CCC4=CC(=O)CC[C@]4(C)C3CC[C@]12C)C(C)C (stereo partly shown),126
10,COc1ccc2cc(CCC(C)=O)ccc2c1,206
11,N[C@H](Cc1ccccc1)C(=O)O,88
12,NC(N)=O,96
13,CNC(C)[C@H](O)c1ccccc1.Cl (stereo partly shown),106
14,N[C@H](C(=O)O)[C@@H]1CC(Cl)=NO1,89
15,CC(C)c1c(O)ccc2c1CCC1[C@@](C)(C=O)CCC[C@]21C (stereo partly shown),96
16,C#C[C@]1(O)CCC2C3CCC4=CC(=O)CC[C@@H]4C3CC[C@@]21C (stereo partly shown),108
17,CN/C(=N\C#N)NCCSCc1nc[nH]c1C,114
18,Cc1nc(C)c(Cl)c(O)c1Cl,138
19,Cc1c(C(N)=O)cc([N+](=O)[O-])cc1[N+](=O)[O-],125
20,Cc1occc(=O)c1O,52
21,CC(N)CO (stereo in doubt),126
22,C[C@]12CCC(=O)C=C1CCC1C2[C@@H](O)C[C@@]2(C)C1CC[C@]2(O)C(=O)CO (stereo partly shown),101

# From paper PMC6664820, “Novel natural and synthetic inhibitors of solute carriers SGLT1 and SGLT2” (Pharmacology Research & Perspectives, 2019)
